Data taken from patent US20050221443A1 (published 2005).

T1: BAFFR (UniProt Q96RJ3 7-71, limits assumed)
T1 sequence (looked up): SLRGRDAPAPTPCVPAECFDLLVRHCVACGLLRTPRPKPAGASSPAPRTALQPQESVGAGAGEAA

T2: BCMA (UniProt Q02223 1-54, limits assumed)
T2 sequence (looked up): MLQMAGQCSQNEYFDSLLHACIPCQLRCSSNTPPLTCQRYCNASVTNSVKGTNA

T3: TACI (UniProt O14836 2-166, limits assumed)
T3 sequence (looked up): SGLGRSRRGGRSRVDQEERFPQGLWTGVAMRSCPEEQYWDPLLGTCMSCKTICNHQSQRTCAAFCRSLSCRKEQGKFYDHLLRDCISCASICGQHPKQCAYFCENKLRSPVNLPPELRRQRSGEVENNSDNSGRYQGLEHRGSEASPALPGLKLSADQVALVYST

B1: BAFF variant Y163D (ligand)
chain: not shown
notes: extracellular domain
B2: BAFF variant Y206F (ligand)
chain: not shown
notes: extracellular domain
B3: BAFF variant D273N (ligand)
chain: not shown
notes: extracellular domain
B4: BAFF variant Q159R (ligand)
chain: not shown
notes: extracellular domain
B5: BAFF variant L211V (ligand)
chain: not shown
notes: extracellular domain
B6: BAFF variant D273A (ligand)
chain: not shown
notes: extracellular domain
B7: BAFF variant Y163L (ligand)
chain: not shown
notes: extracellular domain
B8: BAFF variant N267R (ligand)
chain: not shown
notes: extracellular domain
B9: BAFF variant Q269H (ligand)
chain: not shown
notes: extracellular domain
B10: BAFF variant Q269E (ligand)
chain: not shown
notes: extracellular domain
B11: BAFF variant E238Q (ligand)
chain: not shown
notes: extracellular domain
B12: BAFF variant A207T (ligand)
chain: not shown
notes: extracellular domain
B13: BAFF variant Q159K (ligand)
chain: not shown
notes: extracellular domain
B14: BAFF variant D273E (ligand)
chain: not shown
notes: extracellular domain
B15: BAFF variant L211E (ligand)
chain: not shown
notes: extracellular domain
B16: BAFF variant L240Q (ligand)
chain: not shown
notes: extracellular domain
B17: BAFF variant L240F (ligand)
chain: not shown
notes: extracellular domain
B18: BAFF variant Y163T (ligand)
chain: not shown
notes: extracellular domain
B19: BAFF variant E266R (ligand)
chain: not shown
notes: extracellular domain
B20: BAFF variant N242Y (ligand)
chain: not shown
notes: extracellular domain
B21: BAFF variant E266L (ligand)
chain: not shown
notes: extracellular domain
B22: BAFF variant E266I (ligand)
chain: not shown
notes: extracellular domain
B23: BAFF variant L240N (ligand)
chain: not shown
notes: extracellular domain
B24: BAFF variant L240Y (ligand)
chain: not shown
notes: extracellular domain
B25: BAFF variant D273H (ligand)
chain: not shown
notes: extracellular domain
B26: BAFF variant I233V (ligand)
chain: not shown
notes: extracellular domain
B27: BAFF variant N242A (ligand)
chain: not shown
notes: extracellular domain
B28: BAFF variant Q269K (ligand)
chain: not shown
notes: extracellular domain
B29: BAFF variant S162D (ligand)
chain: not shown
notes: extracellular domain
B30: BAFF variant L240R (ligand)
chain: not shown
notes: extracellular domain
B31: BAFF variant Y163F (ligand)
chain: not shown
notes: extracellular domain
B32: BAFF variant E266T (ligand)
chain: not shown
notes: extracellular domain
B33: BAFF variant T205I (ligand)
chain: not shown
notes: extracellular domain
B34: BAFF variant E238K (ligand)
chain: not shown
notes: extracellular domain
B35: BAFF variant D273R (ligand)
chain: not shown
notes: extracellular domain
B36: BAFF variant E266K (ligand)
chain: not shown
notes: extracellular domain
B37: BAFF variant S162N (ligand)
chain: not shown
notes: extracellular domain
B38: BAFF variant Y163I (ligand)
chain: not shown
notes: extracellular domain
B39: BAFF variant S162L (ligand)
chain: not shown
notes: extracellular domain

Molecular target: T1, BAFFR
Test: Kd ratio to wild-type BAFF; method not stated

Binder | Kd (var/wt) [ratio variant/wild-type]
B1 | 0.69
B2 | 1
B3 | 0.62
B4 | 0.44
B5 | 0.31
B6 | 0.79
B7 | 0.27
B8 | 0.67
B9 | 1
B10 | 0.42
B11 | 0.34
B12 | 0.72
B13 | 0.82
B14 | 0.81
B15 | 0.3
B16 | 0.56
B17 | 0.13
B18 | 0.25
B19 | 1.1
B20 | 0.72

Binder | Kd (var/wt) [ratio variant/wild-type]
B21 | 0.48
B22 | 0.49
B23 | 0.24
B24 | 0.19
B25 | 0.9
B26 | 0.26
B27 | 0.4
B28 | 0.44
B29 | 0.33
B30 | 0.19
B31 | 0.29
B32 | 0.45
B33 | 0.53
B34 | 0.18
B35 | 1
B36 | 0.81
B37 | 0.39
B38 | 0.23
B39 | 0.62

Molecular target: T2, BCMA
Test: Kd ratio to wild-type BAFF; method not stated

Binder | Kd (var/wt) [ratio variant/wild-type]
B1 | 0.19
B2 | 0.19
B3 | 0.43
B4 | 0.29
B5 | 0.12
B6 | 0.22
B7 | 0.25
B8 | 1.3
B9 | 1.5
B10 | 1.13
B11 | 0.47
B12 | 0.61
B13 | 0.51
B14 | 0.85
B15 | 3
B16 | 1.3
B17 | 0.07
B18 | 0.17
B19 | 7.3
B20 | 0.36

Binder | Kd (var/wt) [ratio variant/wild-type]
B21 | 10
B22 | 9.5
B23 | 3.7
B24 | 0.1
B25 | 0.38
B26 | 0.25
B27 | 0.13
B28 | 0.73
B29 | 0.13
B30 | 2.9
B31 | 0.41
B32 | 7.4
B33 | 1.9
B34 | 0.38
B35 | 0.23
B36 | 60
B37 | 0.87
B38 | 0.18
B39 | 0.87

Molecular target: T3, TACI
Test: Kd ratio to wild-type BAFF; method not stated

Binder | Kd (var/wt) [ratio variant/wild-type]
B1 | 0.76
B2 | 0.64
B3 | 0.71
B4 | 0.42
B5 | 0.32
B6 | 0.72
B7 | 0.31
B8 | 1
B9 | 0.8
B10 | 0.65
B11 | 0.36
B12 | 0.5
B13 | 0.79
B14 | 0.67
B15 | 0.32
B16 | 0.79
B17 | 0.33
B18 | 0.26
B19 | 0.48

Binder | Kd (var/wt) [ratio variant/wild-type]
B20 | 0.73
B21 | 1.1
B22 | 0.81
B23 | 0.59
B24 | 0.22
B25 | 1
B26 | 0.28
B27 | 0.32
B28 | 0.62
B29 | 0.28
B30 | 0.43
B31 | 0.26
B33 | 0.58
B34 | 0.09
B35 | 0.69
B36 | 0.3
B37 | 0.5
B38 | 0.28
B39 | 0.56
